Source: publication PMC4336329 (PLoS ONE, 2015)
In all, about 310,000 compounds went through this assay and about 2,200 (0.71%) showed an effect of 50% or more. Effects have a minus sign here. Some of the results follow.

What follows are molecules tested against human ether-à-go-go-related gene (hERG) potassium channel (human, UniProt Q12809) (assay: primary screen, population patch clamp on CHO cells stably expressing hERG).
Chain of human ether-à-go-go-related gene (hERG) potassium channel (Q12809 whole entry, looked up): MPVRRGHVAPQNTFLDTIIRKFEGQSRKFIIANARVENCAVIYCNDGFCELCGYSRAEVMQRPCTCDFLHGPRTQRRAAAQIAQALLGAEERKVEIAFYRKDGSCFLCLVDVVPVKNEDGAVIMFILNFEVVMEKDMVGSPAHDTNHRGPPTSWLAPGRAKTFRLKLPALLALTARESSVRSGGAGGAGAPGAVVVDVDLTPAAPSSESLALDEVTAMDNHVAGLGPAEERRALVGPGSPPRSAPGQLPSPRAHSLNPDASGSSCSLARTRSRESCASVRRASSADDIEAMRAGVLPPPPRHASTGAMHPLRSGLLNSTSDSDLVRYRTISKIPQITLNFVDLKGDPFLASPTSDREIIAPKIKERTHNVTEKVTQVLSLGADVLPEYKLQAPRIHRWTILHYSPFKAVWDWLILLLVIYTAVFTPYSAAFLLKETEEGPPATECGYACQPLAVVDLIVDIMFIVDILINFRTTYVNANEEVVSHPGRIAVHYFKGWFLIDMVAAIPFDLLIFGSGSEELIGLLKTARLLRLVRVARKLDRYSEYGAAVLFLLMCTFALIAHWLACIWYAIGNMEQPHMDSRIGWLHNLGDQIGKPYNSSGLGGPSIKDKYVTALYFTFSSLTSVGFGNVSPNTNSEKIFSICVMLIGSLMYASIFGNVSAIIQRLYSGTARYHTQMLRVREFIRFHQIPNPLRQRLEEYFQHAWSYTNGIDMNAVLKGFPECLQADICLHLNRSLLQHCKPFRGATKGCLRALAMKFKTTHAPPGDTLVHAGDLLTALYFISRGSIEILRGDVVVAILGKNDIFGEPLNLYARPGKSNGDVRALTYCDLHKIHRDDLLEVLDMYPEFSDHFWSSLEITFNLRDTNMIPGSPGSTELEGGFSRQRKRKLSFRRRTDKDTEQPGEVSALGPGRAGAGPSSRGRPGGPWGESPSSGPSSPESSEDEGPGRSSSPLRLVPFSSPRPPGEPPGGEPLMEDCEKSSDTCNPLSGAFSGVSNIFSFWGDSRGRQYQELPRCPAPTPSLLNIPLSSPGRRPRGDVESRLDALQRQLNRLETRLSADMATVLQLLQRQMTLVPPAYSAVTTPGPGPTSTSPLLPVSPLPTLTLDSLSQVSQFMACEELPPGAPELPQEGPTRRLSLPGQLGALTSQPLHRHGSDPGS

SMILES	hERG current change (%, negative = inhibition) at 1uM [%]
Cc1cc(C)n(/C(=C\N(C)C)C(=O)c2ccc(Cl)cc2)n1	13.7
CC1(C)Cc2nc(NCCCO)c(C#N)cc2CO1	8.45
O=C(O)c1cc(-c2ccccc2Cl)n(-c2cccc(Cl)c2)n1	10.3
CN(CC(=O)Nc1n[nH]c(=S)s1)S(=O)(=O)c1cccc2cccnc12	13.6
CCCCC(=O)NC(c1cccs1)c1cc(Cl)c2cccnc2c1O (stereo not shown)	12.3
O=C1CC(c2ccccc2Cl)C2=C(COC2=O)N1 (stereo not shown)	-6.13
CCOC(=O)N1CCN(C(=O)c2ccc(S(=O)(=O)NCc3ccco3)cc2)CC1	6.95
O=C(NC(Cc1ccccc1)C(=O)O)/C(=C\c1ccccc1)NC(=O)c1ccc(Br)o1 (stereo not shown)	9.56
CC1CCCCC1NC(=O)COC(=O)c1ccccn1 (stereo not shown)	3.97
CN(C(=O)c1ccccc1-c1ccccc1C(=O)O)c1ccccc1	4.8
Cc1cccc(C)c1N(CC(=O)N1CCCC1)S(C)(=O)=O	16.2
COc1ccc(C(=O)NNC(=S)NC(=O)c2ccccc2[N+](=O)[O-])cc1	13.9
Clc1ccc(-c2csc(N3CCSCC3)n2)cc1	-7.65
COc1ccc(-c2ccc(C#N)c(SCC(=O)NCCc3ccccc3)n2)cc1OC	8.03
CCCn1cc(SCC(=O)Nc2ccc3c(c2)OCO3)c2ccccc21	6.47
Cc1nn(C)cc1C(C(=O)NC1CCCCC1)N(CCc1ccccc1)C(=O)c1cnccn1 (stereo not shown)	-13.4
CCOc1ccc(NC(=O)N[C@@H](CCSC)C(=O)OC)cc1	8.43
CCSc1ccc([C@@H]2[C@@H]3C(=O)N(CC)C(=O)[C@@H]3[C@]3(C(=O)OC)CCCCN23)cc1OC.O=C(O)C(F)(F)F	10.8
O=C(Nc1nnc(SCc2ccc(F)cc2)s1)C1CC(=O)N(c2ccc3c(c2)OCCO3)C1 (stereo not shown)	8.22
COc1ccccc1N1CCN(C2CCN(C(=O)COc3cccc(C)c3)CC2)CC1.O=C(O)C(=O)O	-26.6
COc1cc(/C=C2/SC(=S)N(CCC(=O)Nc3ccccc3)C2=O)cc(OC)c1OC	15.2
O=C(OC(C(=O)NCc1ccccc1)c1ccccc1F)c1ccco1 (stereo not shown)	7.23

SMILES	hERG current change (%, negative = inhibition) at 1uM [%]
Cc1[nH]nc(SCC(=O)NC2CCCCC2)c1[N+](=O)[O-]	4.56
COc1ccc(C(C)=O)cc1Cn1cnc2c(cnn2C)c1=O	11.5
COc1ccc(C(C)=O)cc1COC(=O)CNC(=O)c1ccc(Cl)cc1	12.2
COc1ccc(NC(=O)NC2(C(=O)N3CCCCCC3)CCCCC2)cc1	-0.553
COc1ccc(C)cc1-n1nnnc1SCC(=O)Nc1cccnc1Cl	2.22
CCN(CC)S(=O)(=O)c1ccc(C(=O)NCc2nnc(SCC(=O)OC)n2C)cc1	0.243
O=C(CCNS(=O)(=O)c1ccc(Br)s1)N1CCCCC1	13.9
Cc1ccc2c(c1)C(c1ccc(F)cc1)N(C(=O)c1cc3ccccc3oc1=O)CC(=O)N2 (stereo not shown)	-21
COc1ccccc1-c1nc(SC)n[nH]1	-5.95
Cn1c2ccccc2c2c(C(=O)NCc3ccco3)cn(C3CCCCC3)c(=O)c21	7.44
CCc1ccnc(NS(=O)(=O)c2ccc3c(c2)CCO3)c1	16.3
Nc1cc(OC(=O)c2ccc(F)cc2)nn1S(=O)(=O)c1ccc(F)cc1	14.6
Cc1ccc2cccc(OCC(=O)N(C)CC(=O)Nc3ccc(F)cc3)c2n1	14.9
Cc1cc(C)cc(OCC(=O)OCC(=O)NCc2ccco2)c1	11.1
COc1cc(/C=N/NC(=O)c2ccccn2)cc2c1OCO2	-2.79
O=C(O)C1=C(OCc2ccccc2)C(=O)NCC1	8.12
O=C(Cn1cnc2c(cnn2-c2ccccc2)c1=O)OCc1ccccc1	14
CN(C)c1ccccc1C(=O)N1CCC(n2nccc2NC(=O)C2CC2)CC1	21
COc1ccccc1CNC(=O)COC(=O)C1CCN(S(=O)(=O)c2ccccc2)CC1	12.6
Cc1ccc(C)c(NC(=O)CN(C)C(=O)c2ccc3c(=O)n4c(nc3c2)CCC4)c1	-4.72
COCCN(C(=O)COC(=O)c1cc(C)oc1C)c1c(N)n(Cc2ccccc2)c(=O)[nH]c1=O	7.59
